Assay results taken from patent US20250243260A1 (ALPINE IMMUNE SCIENCES, published 2025).
Changes are numbered by the printed parent chain. Names and notes keep the numbering of the source. Values belong to the binder of their own block, whether it stands above or below them.

Target: T1, human CD28 (endogenously expressed on primary human T cells) (human, UniProt P10747 19-220)
T1 construct: whole, on cells
Test: flow cytometry, primary human T cells
Experimental: Binding affinity to CD28 was determined using primary human T cells which endogenously express CD28. Binding to PD-L1 was determined using SCC152 cells transduced with human PD-L1. Binding to CTLA-4 was measured using Chinese hamster ovary (CHO) cells stably transduced to express human CTLA-4.
For staining and analysis by flow cytometry, 75,000 human T cells, SCC152/PD-L1 cells, or CHO/CTLA-4 cells were plated in 96-well round-bottom plates. Cells were spun down and resuspended in staining buffer (PBS (phosphate buffered saline), 1% BSA (bovine serum albumin), 1 mM EDTA, and 0.1% sodium azide) for 20 minutes to block non-specific binding. Afterwards, cells were centrifuged, stain buffer aspirated, and then resuspended in 50 μL of a 1:5 serial dilution of each CD80-Fc candidate variant starting at 100 nM ending at 0.8 nM. Primary staining was performed on ice for 60 minutes, before washing cells in […] staining buffer three times. PE-conjugated anti-human Fc (Jackson ImmunoResearch, USA) was diluted 1:250 in 50 μL staining buffer and added to cells and incubated another 30 minutes at 4° C. Cells were washed two times in 150 μL stain buffer and then fixed in 2% formaldehyde/PBS for 5 minutes at room temperature. Samples were analyzed CytoFLEX LX flow cytometer (Beckman Coulter, USA). Median Fluorescence Intensity (MFI) was calculated for each cell type using the CytExpert software from Beckman Coulter.

B1: CD80_177-Fc, variant CD80 IgV-Fc E10G/V11W/V22S/T28P/A71G/E81K/Y87R (Fc fusion)
chain: VIHVTKEVKGWATLSCGHNVSSEELAQPRIYWQKEKKMVLTMMSGDMNIWPEYKNRTIFDITNNLSIVILGLRPSDEGTYKCVVLKREKDAFKREHLAEVTLSVKADGSGGGGS[omitted - human IgG4 Fc with S228P (EU numbers)]
notes: variant IgV - GSGGGGS - human IgG4 Fc (S228P)
- MFI (anti-human Fc) at 0.8 nM: 208 MFI
- MFI (anti-human Fc) at 4 nM: 170 MFI
- MFI (anti-human Fc) at 20 nM: 201 MFI
- MFI (anti-human Fc) at 100 nM: 255 MFI
- fold change of MFI vs WT CD80 at 20 nM: 1.1 fold

B2: CD80_179-Fc, variant CD80 IgV-Fc H18F/M42G/F59Y/V68N (Fc fusion)
chain: VIHVTKEVKEVATLSCGFNVSVEELAQTRIYWQKEKKMVLTGMSGDMNIWPEYKNRTIYDITNNLSINILALRPSDEGTYECVVLKYEKDAFKREHLAEVTLSVKADGSGGGGS[omitted - human IgG4 Fc with S228P (EU numbers)]
notes: as for B1
- MFI (anti-human Fc) at 0.8 nM: 192 MFI
- MFI (anti-human Fc) at 4 nM: 194 MFI
- MFI (anti-human Fc) at 20 nM: 212 MFI
- MFI (anti-human Fc) at 100 nM: 246 MFI
- fold change of MFI vs WT CD80 at 20 nM: 1.2 fold

B3: CD80_204-Fc, variant CD80 IgV-Fc H18V/V20I/T28Y/E35G/M47V/R73E (Fc fusion)
chain: B2 chain with F18V, V20I, T28Y, E35G, G42M, M47V, Y59F, N68V, R73E
notes: as for B1
- MFI (anti-human Fc) at 0.8 nM: 289 MFI
- MFI (anti-human Fc) at 4 nM: 457 MFI
- MFI (anti-human Fc) at 20 nM: 971 MFI
- MFI (anti-human Fc) at 100 nM: 2110 MFI
- fold change of MFI vs WT CD80 at 20 nM: 5.4 fold

B6: CD80_183-Fc, variant CD80 IgV-Fc V11Y/T28Y/M47L/A71G/Y87R (Fc fusion)
chain: B1 chain with G10E, W11Y, S22V, P28Y, M47L, K81E
notes: as for B1
- MFI (anti-human Fc) at 0.8 nM: 571 MFI
- MFI (anti-human Fc) at 4 nM: 1230 MFI
- MFI (anti-human Fc) at 20 nM: 2350 MFI
- MFI (anti-human Fc) at 100 nM: 3180 MFI
- fold change of MFI vs WT CD80 at 20 nM: 13.1 fold

B8: CD80_184-Fc, variant CD80 IgV-Fc V11Y/A26Q/M47L/A71G/Y87R (Fc fusion)
chain: B1 chain with G10E, W11Y, S22V, A26Q, P28T, M47L, K81E
notes: as for B1
- MFI (anti-human Fc) at 0.8 nM: 556 MFI
- MFI (anti-human Fc) at 4 nM: 1190 MFI
- MFI (anti-human Fc) at 20 nM: 2210 MFI
- MFI (anti-human Fc) at 100 nM: 2780 MFI
- fold change of MFI vs WT CD80 at 20 nM: 12.3 fold

B9: CD80_199-Fc, variant CD80 IgV-Fc E10G/H18Y (Fc fusion)
chain: B2 chain with E10G, F18Y, G42M, Y59F, N68V
notes: as for B1
- MFI (anti-human Fc) at 0.8 nM: 222 MFI
- MFI (anti-human Fc) at 4 nM: 310 MFI
- MFI (anti-human Fc) at 20 nM: 493 MFI
- MFI (anti-human Fc) at 100 nM: 738 MFI
- fold change of MFI vs WT CD80 at 20 nM: 2.7 fold

B11: CD80_203-Fc, variant CD80 IgV-Fc K9N/E10A/V11W/H18F/T28H/M47L/T62E/R73D (Fc fusion)
chain: B2 chain with K9N, E10A, V11W, T28H, G42M, M47L, Y59F, T62E, N68V, R73D
notes: as for B1
- MFI (anti-human Fc) at 0.8 nM: 269 MFI
- MFI (anti-human Fc) at 4 nM: 341 MFI
- MFI (anti-human Fc) at 20 nM: 550 MFI
- MFI (anti-human Fc) at 100 nM: 993 MFI
- fold change of MFI vs WT CD80 at 20 nM: 3.1 fold

B13: CD80_187-Fc, variant CD80 IgV-Fc V11Y/H18Y/E35G/L85Q (Fc fusion)
chain: B2 chain with V11Y, F18Y, E35G, G42M, Y59F, N68V, L85Q
notes: as for B1
- MFI (anti-human Fc) at 0.8 nM: 174 MFI
- MFI (anti-human Fc) at 4 nM: 175 MFI
- MFI (anti-human Fc) at 20 nM: 188 MFI
- MFI (anti-human Fc) at 100 nM: 205 MFI
- fold change of MFI vs WT CD80 at 20 nM: 1 fold

Next, values leading:

- MFI (anti-human Fc) at 0.8 nM: 188 MFI
- MFI (anti-human Fc) at 4 nM: 229 MFI
- MFI (anti-human Fc) at 20 nM: 309 MFI
- MFI (anti-human Fc) at 100 nM: 430 MFI
- fold change of MFI vs WT CD80 at 20 nM: 1.7 fold
B4: CD80_211-Fc, variant CD80 IgV-Fc V11Y/T28R/E35G/M47L/A71G (Fc fusion)
chain: B1 chain with G10E, W11Y, S22V, P28R, E35G, M47L, K81E, R87Y
notes: as for B1

- MFI (anti-human Fc) at 0.8 nM: 233 MFI
- MFI (anti-human Fc) at 4 nM: 265 MFI
- MFI (anti-human Fc) at 20 nM: 299 MFI
- MFI (anti-human Fc) at 100 nM: 431 MFI
- fold change of MFI vs WT CD80 at 20 nM: 1.7 fold
B5: CD80_205-Fc, variant CD80 IgV-Fc E10G/D46K/L85E (Fc fusion)
chain: B2 chain with E10G, F18H, G42M, D46K, Y59F, N68V, L85E
notes: as for B1

- MFI (anti-human Fc) at 0.8 nM: 352 MFI
- MFI (anti-human Fc) at 4 nM: 661 MFI
- MFI (anti-human Fc) at 20 nM: 1100 MFI
- MFI (anti-human Fc) at 100 nM: 1430 MFI
- fold change of MFI vs WT CD80 at 20 nM: 6.1 fold
B7: CD80_207-Fc, variant CD80 IgV-Fc E35D/V68T/T101K (Fc fusion)
chain: B2 chain with F18H, E35D, G42M, Y59F, N68T, T101K
notes: as for B1

- MFI (anti-human Fc) at 0.8 nM: 182 MFI
- MFI (anti-human Fc) at 4 nM: 184 MFI
- MFI (anti-human Fc) at 20 nM: 203 MFI
- MFI (anti-human Fc) at 100 nM: 258 MFI
- fold change of MFI vs WT CD80 at 20 nM: 1.1 fold
B10: CD80_210-Fc, variant CD80 IgV-Fc E7N/E35D/F59S (Fc fusion)
chain: B2 chain with E7N, F18H, E35D, G42M, Y59S, N68V
notes: as for B1

- MFI (anti-human Fc) at 0.8 nM: 188 MFI
- MFI (anti-human Fc) at 4 nM: 193 MFI
- MFI (anti-human Fc) at 20 nM: 231 MFI
- MFI (anti-human Fc) at 100 nM: 357 MFI
- fold change of MFI vs WT CD80 at 20 nM: 1.3 fold
B12: CD80_209-Fc, variant CD80 IgV-Fc V11Y/T28R/E35G/M47L/F59S (Fc fusion)
chain: B2 chain with V11Y, F18H, T28R, E35G, G42M, M47L, Y59S, N68V
notes: variant IgV - GSGGGGS - human IgG4 Fc (S228P); also called H5890

- MFI (anti-human Fc) at 0.8 nM: 342 MFI
- MFI (anti-human Fc) at 4 nM: 565 MFI
- MFI (anti-human Fc) at 20 nM: 1210 MFI
- MFI (anti-human Fc) at 100 nM: 1580 MFI
- fold change of MFI vs WT CD80 at 20 nM: 6.7 fold
B14: CD80_206-Fc, variant CD80 IgV-Fc E10G/H18T/Q27T/D46E/M47L (Fc fusion)
chain: B2 chain with E10G, F18T, Q27T, G42M, D46E, M47L, Y59F, N68V
notes: as for B1
